Whole data set: some 2,800 compounds, median “cell viability relative to vehicle” near 0.98, cut for the lowest 2% near 0.45. The list shows a part of the results.

This assay has as its system NCI-H2228 alectinib-DTP. The experiment in a line: cell viability relative to vehicle (fraction of vehicle); NCI-H2228 is an ALK-positive lung cancer line and DTP means drug-tolerant persister; higher = less growth inhibition. As to conditions: 100 nM; treatment time 6 days. The essentials: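 Each value is viability relative to vehicle-treated cells, measured as ATP with the CellTiter-Glo 3D Cell Viability Assay. Parental NCI-H2228 cells and drug-tolerant persisters (1000 nM targeted drug, 13 days) in 384-well plates received the 3114-agent TargetMol anti-cancer compound library at 100 nM, or DMSO, and were read 6 days later.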
Consider `COc1cc(/C=C/C(=O)OC[C@H]2O[C@H](O[C@]3(CO)O[C@H](CO)[C@@H](O)[C@@H]3OC(=O)/C=C/c3cc(OC)c(O)c(OC)c3)[C@H](O)[C@@H](O)[C@@H]2O)cc(OC)c1O` [3,6'-Disinapoyl sucrose], for which the cell viability was 0.873. Next, `CCOc1cc([C@@H](CS(C)(=O)=O)N2C(=O)c3cccc(NC(C)=O)c3C2=O)ccc1OC` [Apremilast]: 0.967; `COc1ccc2ccc(=O)oc2c1` [Herniarin]: 1.2; `CCc1cncnc1N1CCN(Cc2nc3ccc(C(F)(F)F)cc3[nH]2)CC1`: 1.01. Next, `CNC(=O)c1ccccc1Nc1nc(Nc2ccc3c(c2OC)CCC[C@H](N2CCN(CCO)CC2)C3)ncc1Cl`: 0.86; `O=C(O)CCc1ccc(O)cc1O` [Hydroumbellic acid]: 0.883; `O=C(O)c1ccc2c(c1)C(=O)c1ccccc1C2=O`: 1.08. Turning to `Cc1cc(C2CCCCC2)n(O)c(=O)c1` [Ciclopirox], the cell viability turned out to be 0.92. For the compound `CCc1cc2c(=O)c(-c3nc4ccccc4s3)coc2c(CN2CCCCC2)c1O`, the cell viability amounted to 1.01. `O=C(COc1ccc(Cl)cc1)NC1CCC(NC(=O)COc2ccc(Cl)cc2)CC1` (stereo not drawn) [ISRIB (trans-isomer)] came in with a cell viability of 0.899. `O=C(COc1ccc(Cl)cc1)NC1CCC(NC(=O)COc2ccc(Cl)cc2)CC1` (stereo not drawn) came in with a cell viability of 0.998. `COc1cc2ncnc(Oc3cccc(NC(=O)Nc4cc(C(C)(C)C(F)(F)F)on4)c3)c2cc1OC` came in with a cell viability of 1.12.

For the compound `O=c1c(O)c(-c2ccc(O)c(O)c2)oc2cc(O)ccc12` [Fisetin], the cell viability amounted to 0.98.

Regarding `CNS(=O)(=O)Cc1ccc2[nH]cc(CCN(C)C)c2c1` [Sumatriptan succinate], the cell viability amounted to 1.08. Turning to `NS(=O)(=O)c1cc2c(cc1Cl)N=CNS2(=O)=O` [Chlorothiazide], the cell viability stood at 1.01. `COc1ccc(-c2cnc3c(-c4cccc5ncccc45)cnn3c2)cc1` displayed a cell viability of 1.09. Take `COc1ccc(-c2nc3cc(C4=NNC(=O)CC4C)ccc3[nH]2)cc1` (stereo not drawn) [Pimobendan]: the cell viability came out at 0.931. Next, `NCC(=O)Nc1ccc(-n2nc(C(F)(F)F)cc2-c2ccc3c(ccc4ccccc43)c2)cc1`: 0.891; `CNC(=O)c1ccc(-c2cnc3ncc(Cc4ccc5ncccc5c4)n3n2)cc1F` [Capmatinib 2HCl]: 1.03; `CNC(=O)c1ccc(-c2cnc3ncc(Cc4ccc5ncccc5c4)n3n2)cc1F` [Capmatinib]: 1.04. `Cc1ccc(S(=O)(=O)n2c(N)nc3ccccc32)cc1` displayed a cell viability of 0.986. In turn, `CCOc1ccc2c(c1)C(C)=CC(C)(C)N2` [Ethoxyquin] came in with a cell viability of 1.06. The compound `CCOC(=O)[C@H](CCc1ccccc1)N[C@@H](C)C(=O)N1[C@H](C(=O)O)C[C@@H]2CCC[C@@H]21` [Ramipril] had a cell viability of 0.894.

The values are drawn from the supplement of paper PMC10600219.
